The values below come from paper PMC12820563, “FoxP3 forms a head-to-head dimer in vivo and stabilizes its multimerization on adjacent microsatellites”.

This is one part of the list.

In the assay the target is T1, MBP-FoxP1dN (Mus musculus, UniProt P58462 326-579).
T1 sequence: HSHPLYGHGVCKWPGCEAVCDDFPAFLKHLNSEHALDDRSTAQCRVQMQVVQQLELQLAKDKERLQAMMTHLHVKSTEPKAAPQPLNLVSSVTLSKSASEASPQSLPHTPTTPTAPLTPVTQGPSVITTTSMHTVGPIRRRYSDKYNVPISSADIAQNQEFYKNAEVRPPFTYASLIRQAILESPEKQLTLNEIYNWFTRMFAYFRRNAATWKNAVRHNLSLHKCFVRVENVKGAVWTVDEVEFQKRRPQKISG
The experiment in a line: PD-seq (MBP pull-down with sequencing); 20 mM Tris-HCl pH 7.5, 100 mM NaCl, 1.5 mM MgCl2, 0.4 uM protein, 0.1 uM dsDNA library, 30 min, room temperature, amylose pull-down; high values mean tight binding. The settings on record: protein: recombinant; tags: His6-MBP; chain copies: 2; dsDNA, one strand shown. The method in brief: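 His6-MBP-tagged mouse FoxP3 or FoxP1 fragment lacking the N-terminus, expressed in E. coli, was mixed at 0.4 µM with 0.1 µM Klenow-filled double-stranded degenerate DNA library. Incubation was 30 min at room temperature in Tris pH 7.5 buffer with NaCl and MgCl2. Complexes were caught on amylose resin and washed three times; DNA was released with proteinase K, PCR-barcoded and Illumina-sequenced. Binding is reads-per-million enrichment, pull-down over input, with replicates pooled.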
Turning to “GATGATTGTTCTCCCAGCTGATGAATTGGACGAGTCGAGTAAACAAATTTTCCTAATCTTTCTGTTCAAGCGCCATCTAC”, the binding signal is 0.758 RPM ratio (pull-down/input). For “GATGATTGTTCTCCCAGCTGATGAATTGGCTTCCTCGAGTAAACAAATTTTCCTAATCTTTCTGTTCAAGCGCCATCTAC”, the binding signal was 0.842 RPM ratio (pull-down/input). For “GATGATTGTTCTCCCAGCTGATGAATTAAACGACTCGAGTAAACAAATTTTCCTAATCTTTCTGTTCAAGCGCCATCTAC”, the binding signal is 0.802 RPM ratio (pull-down/input). Under “GATGATTGTTCTCCCAGCTGATGAATTCGCGCTCTCGAGTAAACAAATTTTCCTAATCTTTCTGTTCAAGCGCCATCTAC” stands 0.8 RPM ratio (pull-down/input). Then “GATGATTGTTCTCCCAGCTGATGAATTCCTCATCTCGAGTAAACAAATTTTCCTAATCTTTCTGTTCAAGCGCCATCTAC”, with 0.754 RPM ratio (pull-down/input); and “GATGATTGTTCTCCCAGCTGATGAATTTGGCTCGTCGAGTAAACAAATTTTCCTAATCTTTCTGTTCAAGCGCCATCTAC”, with 0.818 RPM ratio (pull-down/input). Under “GATGATTGTTCTCCCAGCTGATGAATTAGAGGAGTCGAGTAAACAAATTTTCCTAATCTTTCTGTTCAAGCGCCATCTAC” stands 0.822 RPM ratio (pull-down/input). Regarding “GATGATTGTTCTCCCAGCTGATGAATTCAGCGAATCGAGTAAACAAATTTTCCTAATCTTTCTGTTCAAGCGCCATCTAC”, the binding signal was 0.907 RPM ratio (pull-down/input). Then “GATGATTGTTCTCCCAGCTGATGAATTAGTTCCCTCGAGTAAACAAATTTTCCTAATCTTTCTGTTCAAGCGCCATCTAC”, with 1.02 RPM ratio (pull-down/input); and “GATGATTGTTCTCCCAGCTGATGAATTGAATATATCGAGTAAACAAATTTTCCTAATCTTTCTGTTCAAGCGCCATCTAC”, with 1.04 RPM ratio (pull-down/input).

In the case of “GATGATTGTTCTCCCAGCTGATGAATTTAGCTCCTCGAGTAAACAAATTTTCCTAATCTTTCTGTTCAAGCGCCATCTAC”, the binding signal is 0.946 RPM ratio (pull-down/input). Under “GATGATTGTTCTCCCAGCTGATGAATTTTCCCCTTCGAGTAAACAAATTTTCCTAATCTTTCTGTTCAAGCGCCATCTAC” stands 0.881 RPM ratio (pull-down/input).

Consider “GATGATTGTTCTCCCAGCTGATGAATTCAGGTTTTCGAGTAAACAAATTTTCCTAATCTTTCTGTTCAAGCGCCATCTAC”, for which the binding signal is 1.05 RPM ratio (pull-down/input).

In the case of “GATGATTGTTCTCCCAGCTGATGAATTTGTCGGCTCGAGTAAACAAATTTTCCTAATCTTTCTGTTCAAGCGCCATCTAC”, the binding signal was 0.872 RPM ratio (pull-down/input). Then “GATGATTGTTCTCCCAGCTGATGAATTTGGTAAGTCGAGTAAACAAATTTTCCTAATCTTTCTGTTCAAGCGCCATCTAC”, with 1.01 RPM ratio (pull-down/input). Then “GATGATTGTTCTCCCAGCTGATGAATTGTCCAGCTCGAGTAAACAAATTTTCCTAATCTTTCTGTTCAAGCGCCATCTAC”, with 0.895 RPM ratio (pull-down/input). Then “GATGATTGTTCTCCCAGCTGATGAATTCTGTTAATCGAGTAAACAAATTTTCCTAATCTTTCTGTTCAAGCGCCATCTAC”, with 1.09 RPM ratio (pull-down/input); and “GATGATTGTTCTCCCAGCTGATGAATTTCTCAAGTCGAGTAAACAAATTTTCCTAATCTTTCTGTTCAAGCGCCATCTAC”, with 0.832 RPM ratio (pull-down/input). With “GATGATTGTTCTCCCAGCTGATGAATTTAAATTGTCGAGTAAACAAATTTTCCTAATCTTTCTGTTCAAGCGCCATCTAC”, the binding signal is 1.07 RPM ratio (pull-down/input). Under “GATGATTGTTCTCCCAGCTGATGAATTATAGGGCTCGAGTAAACAAATTTTCCTAATCTTTCTGTTCAAGCGCCATCTAC” stands 0.796 RPM ratio (pull-down/input). Under “GATGATTGTTCTCCCAGCTGATGAATTACGGGTGTCGAGTAAACAAATTTTCCTAATCTTTCTGTTCAAGCGCCATCTAC” stands 0.905 RPM ratio (pull-down/input); under “GATGATTGTTCTCCCAGCTGATGAATTAACAACATCGAGTAAACAAATTTTCCTAATCTTTCTGTTCAAGCGCCATCTAC”, 2.17 RPM ratio (pull-down/input). Then “GATGATTGTTCTCCCAGCTGATGAATTGGCAAGTTCGAGTAAACAAATTTTCCTAATCTTTCTGTTCAAGCGCCATCTAC”, with 0.817 RPM ratio (pull-down/input); and “GATGATTGTTCTCCCAGCTGATGAATTCGATAACTCGAGTAAACAAATTTTCCTAATCTTTCTGTTCAAGCGCCATCTAC”, with 0.893 RPM ratio (pull-down/input).

As for “GATGATTGTTCTCCCAGCTGATGAATTTCCCCAGTCGAGTAAACAAATTTTCCTAATCTTTCTGTTCAAGCGCCATCTAC”, the binding signal is 0.767 RPM ratio (pull-down/input).

With “GATGATTGTTCTCCCAGCTGATGAATTCGCATCTTCGAGTAAACAAATTTTCCTAATCTTTCTGTTCAAGCGCCATCTAC”, the binding signal is 1.42 RPM ratio (pull-down/input). Then “GATGATTGTTCTCCCAGCTGATGAATTGTCCCGGTCGAGTAAACAAATTTTCCTAATCTTTCTGTTCAAGCGCCATCTAC”, with 0.848 RPM ratio (pull-down/input); and “GATGATTGTTCTCCCAGCTGATGAATTAACAGTTTCGAGTAAACAAATTTTCCTAATCTTTCTGTTCAAGCGCCATCTAC”, with 1.09 RPM ratio (pull-down/input). Under “GATGATTGTTCTCCCAGCTGATGAATTCTAGTAGTCGAGTAAACAAATTTTCCTAATCTTTCTGTTCAAGCGCCATCTAC” stands 0.92 RPM ratio (pull-down/input); under “GATGATTGTTCTCCCAGCTGATGAATTAGCTACCTCGAGTAAACAAATTTTCCTAATCTTTCTGTTCAAGCGCCATCTAC”, 0.807 RPM ratio (pull-down/input). Under “GATGATTGTTCTCCCAGCTGATGAATTTTCCTCCTCGAGTAAACAAATTTTCCTAATCTTTCTGTTCAAGCGCCATCTAC” stands 0.932 RPM ratio (pull-down/input); under “GATGATTGTTCTCCCAGCTGATGAATTTTAACCCTCGAGTAAACAAATTTTCCTAATCTTTCTGTTCAAGCGCCATCTAC”, 0.796 RPM ratio (pull-down/input); under “GATGATTGTTCTCCCAGCTGATGAATTCATTCGGTCGAGTAAACAAATTTTCCTAATCTTTCTGTTCAAGCGCCATCTAC”, 0.807 RPM ratio (pull-down/input). With “GATGATTGTTCTCCCAGCTGATGAATTGCCTTTTTCGAGTAAACAAATTTTCCTAATCTTTCTGTTCAAGCGCCATCTAC”, the binding signal was 1.1 RPM ratio (pull-down/input). For the sequence “GATGATTGTTCTCCCAGCTGATGAATTCTGTTCCTCGAGTAAACAAATTTTCCTAATCTTTCTGTTCAAGCGCCATCTAC”, the binding signal is 0.854 RPM ratio (pull-down/input).

Turning to “GATGATTGTTCTCCCAGCTGATGAATTTCCTGATTCGAGTAAACAAATTTTCCTAATCTTTCTGTTCAAGCGCCATCTAC”, the binding signal was 0.867 RPM ratio (pull-down/input).

With “GATGATTGTTCTCCCAGCTGATGAATTTAGCCCATCGAGTAAACAAATTTTCCTAATCTTTCTGTTCAAGCGCCATCTAC”, the binding signal was 0.873 RPM ratio (pull-down/input). Then “GATGATTGTTCTCCCAGCTGATGAATTCGTGGTTTCGAGTAAACAAATTTTCCTAATCTTTCTGTTCAAGCGCCATCTAC”, with 0.879 RPM ratio (pull-down/input); and “GATGATTGTTCTCCCAGCTGATGAATTTAGCCCTTCGAGTAAACAAATTTTCCTAATCTTTCTGTTCAAGCGCCATCTAC”, with 0.876 RPM ratio (pull-down/input); and “GATGATTGTTCTCCCAGCTGATGAATTCGGAATCTCGAGTAAACAAATTTTCCTAATCTTTCTGTTCAAGCGCCATCTAC”, with 0.853 RPM ratio (pull-down/input).
